Source: paper PMC6919601, “Identification of Plasmodium dipeptidyl aminopeptidase allosteric inhibitors by high throughput screening” (PLoS ONE, 2019)
About 230 (0.21%) of roughly 110,000 compounds showed an effect of 50% or more. Some of the results follow.

Each molecule was assayed against DPAP1 (Plasmodium falciparum, UniProt Q8IIJ9) (assay: primary screen, percent inhibition; read by cleavage of a fluorogenic dipeptide substrate; higher = more effect of the substance).
Set-up: species or system P. falciparum D10 trophozoite lysates; single well
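Also: 30 min substrate incubation versus DMSO and 10 µM JCP410 controls.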

DPAP1, sequence (Q8IIJ9 whole entry, looked up): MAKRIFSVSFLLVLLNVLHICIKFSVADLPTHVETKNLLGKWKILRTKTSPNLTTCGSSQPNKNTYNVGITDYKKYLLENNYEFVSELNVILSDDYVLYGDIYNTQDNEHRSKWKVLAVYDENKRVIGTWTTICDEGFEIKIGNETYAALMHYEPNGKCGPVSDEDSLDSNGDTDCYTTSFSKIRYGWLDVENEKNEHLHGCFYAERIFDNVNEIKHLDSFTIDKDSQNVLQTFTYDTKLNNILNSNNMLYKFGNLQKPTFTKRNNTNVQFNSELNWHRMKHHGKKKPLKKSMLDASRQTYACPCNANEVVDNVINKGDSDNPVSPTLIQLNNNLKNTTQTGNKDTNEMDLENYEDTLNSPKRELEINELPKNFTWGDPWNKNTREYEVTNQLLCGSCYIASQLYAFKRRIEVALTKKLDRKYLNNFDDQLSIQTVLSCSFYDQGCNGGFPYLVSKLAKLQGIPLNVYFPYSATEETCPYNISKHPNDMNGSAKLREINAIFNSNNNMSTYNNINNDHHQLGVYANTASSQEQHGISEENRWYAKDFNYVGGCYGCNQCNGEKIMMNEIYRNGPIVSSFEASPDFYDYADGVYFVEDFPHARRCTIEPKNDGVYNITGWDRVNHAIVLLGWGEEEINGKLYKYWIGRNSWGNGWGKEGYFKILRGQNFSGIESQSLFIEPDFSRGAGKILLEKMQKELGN

Row | Structure (SMILES) | % Inhibition @ 10 uM [%]
1 | COc1ccc(-c2cc(C)no2)cc1S(=O)(=O)N1CCN(C(=O)c2ccco2)CC1 | 3.41
2 | Cc1nnc2c(Sc3nc4ccccc4s3)nc3ccccc3n12 | -1.68
3 | O/C(=C\C=N\c1cc(Cl)ccc1O)c1cccs1 | 1.35
4 | O=C(Nc1cccc(Cl)c1)c1cccs1 | 1.48
5 | CC1CN(C(=O)c2cccs2)C(C)CN1C(=O)c1cccs1 (stereo not shown) | -1.61
6 | O=C(/N=C1\SC2CS(=O)(=O)CC2N1c1ccc(Cl)cc1)c1ccccc1 (stereo not shown) | 0.408
7 | CC(C)C[C@H](NC(=O)c1cccc(CN2CCN(C)CC2)c1)C(=O)NCC#N | -3.97
8 | CC(C)(C)NC(=O)c1cccc(NC(=O)CN2C(=O)c3ccccc3C2=O)c1 | -1.36
9 | N#CC1(NC(=O)[C@H](Cc2cc(Cl)c(O)c(Cl)c2)NC(=O)c2ccc(Br)cc2)CC1 | -1.41
10 | COc1cc(S(=O)(=O)n2nc(C)c(C(C)=O)c2C)ccc1F | -0.189
11 | N#Cc1ccc(Oc2ccc3ccccc3c2)cc1C#N | -4.96
12 | Cc1ccccc1CSc1ncc(Cl)c(C(=O)NCCc2ccc(S(N)(=O)=O)cc2)n1 | 0.758
13 | CCN(C(=O)CC(C)C)c1nc(-c2ccc(C)cc2)cs1 | 4.86
14 | CCCCCCOC(=O)c1ccccc1NC(=O)/C=C/C(=O)O | -8.75
15 | CCC1CCCCN1S(=O)(=O)c1ccc2nc(O)cc(C(=O)NCCc3ccc(C)cc3)c2c1 (stereo not shown) | 0.387
16 | N=c1c2c3c(sc2ncn1CCO)CCCCC3 | 27.5
17 | COc1ccc(CNC(=O)OCc2nccnc2C(=O)Nc2ccc(Br)cn2)cc1 | -1.3
18 | O=c1c2ccccc2nc(/C=C/c2cc(Br)ccc2O)n1CCO | 11.4
19 | O=C1C(CCNc2ccccc2)C=NN1c1ccccc1 (stereo not shown) | 1.7
20 | OCCNc1c2ccccc2nc2c(F)c(F)c(F)c(F)c12 | 2.46
21 | Cc1cc2c(c(=O)o1)C(c1ccoc1)C(C#N)=C(N)O2 (stereo not shown) | 1.4
22 | Nc1cc(O)nc(N(Cc2ccccc2)Cc2ccccc2)n1 | 2.4
23 | COc1ccc(OC)c(CNS(=O)(=O)c2cc(-c3cc(C)no3)ccc2OC)c1 | -1.34
24 | CCc1ccc(/C=C2\Oc3ccc(C(=O)OC)cc3C2=O)cc1 | -1.37
25 | CCc1c(C#N)c(SCC(=O)Nc2cccc(C(C)=O)c2)nc2c1C(=O)CC(C)(C)C2 | 8.15

Row | Structure (SMILES) | % Inhibition @ 10 uM [%]
26 | CCOC(=O)NCCN1C(=O)C2C3C=CC(C3)C2C1=O (stereo not shown) | -2.98
27 | COCCn1c(SCC(=O)Nc2nnc(C)s2)nnc1-c1c[nH]c2ccccc12 | -1.3
28 | CCOC(=O)c1[nH]c2c(c1C)C(=O)CC(c1ccc(OCC)cc1)C2 (stereo not shown) | 2.57
29 | CCn1c(SCC(=O)NCc2ccc3c(c2)OCO3)nc2c(c1=O)SCC2 | 1.97
30 | CCCN1CCN(C(=O)C2CCCN(c3nc4ccc(OCC)cc4s3)C2)CC1 (stereo not shown) | 3.4
31 | O=C(NCC1CCCO1)c1c(O)nnc(-c2ccccc2)c1-c1ccccc1 (stereo not shown) | -1.11
32 | Cc1ccc(NC(=O)c2ccccc2NC(=O)C2CCCCC2C(=O)O)cc1 (stereo not shown) | -0.95
33 | CC1(C)CC(=O)C2=C(C1)N(Cc1ccccc1)C(=O)C2(NC(=O)CCC1CCCCC1)C(F)(F)F (stereo not shown) | -1.52
34 | Cc1ccccc1C1NC(=O)c2c(sc3c2CCN(C)C3)N1 (stereo not shown) | -3.96
35 | CC(NCC(O)Cn1nnnc1-c1ccccc1)c1ccccc1 (stereo not shown) | 2.5
36 | COc1ccc(-c2nc3s/c(=C\c4ccco4)c(=O)n3n2)cc1 | 0.487
37 | CN1CCN(C(=O)c2ccc(N)cc2C(=O)O)CC1 | -2.76
38 | CCOc1cccc2cc(-c3csc(NC(=O)CCC(=O)N4CCN(C)CC4)n3)c(=O)oc12 | 3.21
39 | Cc1ccc(OCC(=O)Nc2ccc(C)cc2C)cc1 | 5.69
40 | CCN(c1ccccc1)S(=O)(=O)c1ccc(NC(=O)c2ccc(Cl)cc2)cc1 | -5.6
41 | CCOc1ccc(-c2c(C)nn3c(O)c(N4CCc5ccccc5C4)c(C)nc23)cc1OCC | -0.72
42 | Cc1nn(CC(=O)NCc2cccc(Cl)c2)c(=O)c2nn(-c3ccccc3)c(C)c12 | -2.68
43 | O=C(Nc1cccc2ccccc12)c1ccc(Cl)cc1 | -1.29
44 | COc1cccc(CNC(=O)NCc2cccn2Cc2ccccc2)c1 | -3.15
45 | CC(C)(C)NC(=O)Cn1ncc2c3ccccc3n(Cc3ccccc3F)c2c1=O | 0.137
46 | Cc1cccc(C)c1OCCNC(=O)OCc1ccccc1 | -4.15
47 | Cc1cc(OCC(=O)NC2C3CC4CC(C3)CC2C4)ccc1Cl (stereo not shown) | 2.98
48 | Oc1ccccc1-c1nc(/C=C/c2cccnc2)no1 | -3.53
49 | CCC1C(=O)N=C(SCC(=O)Nc2nc3ccc(C(=O)OC)cc3s2)NC1=O (stereo not shown) | 4.54
50 | CCN(Cc1ccccc1)C(=O)C(Cc1ccccc1)NS(=O)(=O)c1cccc2nsnc12 (stereo not shown) | -9.06

Row | Structure (SMILES) | % Inhibition @ 10 uM [%]
51 | CC(C)CCNC(=O)c1ccc(CNS(=O)(=O)c2ccc(F)cc2)cc1 | 5.28
52 | CC(C)NS(=O)(=O)c1ccc(CCC(=O)Nc2ccc(F)c(Cl)c2)cc1 | -9.29
53 | COc1ccc(-c2cn3nc(N4CCC(C(=O)NCCCN5CCCC5=O)CC4)sc3n2)cc1 | -2.77
54 | Cc1ccccc1C(=O)Nc1ccccn1 | 0.13
55 | COc1ccc(N2C(=O)CCC2(C#N)c2ccccc2OCc2ccccc2)cc1 (stereo not shown) | 4.32
56 | COC(=O)c1c(NC(=O)c2cc(=O)c3cc(C)ccc3o2)sc2c1CCCC2 | -5.08
57 | CSc1ccc(NC(=O)c2sc3nc4c(cc3c2N)CCCC4)cc1 | -0.99
58 | O=C(Nc1ccc2c(c1)OCO2)c1ccccc1NC(=O)C1CCCCC1C(=O)O (stereo not shown) | 4.11
59 | CC(O)c1nc2ccccc2n1CCCCOc1ccccc1 (stereo not shown) | -0.28
60 | Cc1ccc(CNS(=O)(=O)c2ccc3[nH]c4c(c3c2)CCCC4)o1 | 0.434
61 | N=C(NOC(=O)CC1CCCCC1)c1ccncc1 | -0.0626
62 | Cc1nnc(C)n1/N=C/c1cc(Br)cc(Br)c1O | 10.6
63 | O=C(CC(c1cccs1)N1Cc2ccccc2C1=O)NC1CCCC1 (stereo not shown) | -0.767
64 | O=C(C1CCCN(S(=O)(=O)N2CCOCC2)C1)N1CCN(Cc2ccccc2)CC1 (stereo not shown) | 5.43
65 | COCCNC(=O)Cn1cc(C=O)c2ccccc21 | -2.72
66 | NC(=O)c1c(Nc2ccccc2)ccnc1O | 0.774
67 | CCOC(=O)N1CCN(C(=O)CSc2ncccn2)CC1 | -1.47
68 | c1ccc(C2=NCCCCN2)cc1 | 8.55
69 | N#C/C(=C\c1cccc2ccccc12)c1nc(-c2cccs2)cs1 | -0.239
70 | C=CC(C)(C#CCN(CC)CC)OC(C)=O (stereo not shown) | -11.6
71 | COC(=O)c1ccc2c(c1)C(=O)/C(=C/c1ccc(OC)cc1OC)O2 | -3.08
72 | Cc1c(CC(=O)NCc2ccc3c(c2)OCO3)c(=O)oc2c(C)c(O)ccc12 | -0.808
73 | COc1ccc(C2=NN(CC(=O)NCCCN3CCN(C)CC3)C(=O)CC2)cc1 | 3.24
74 | CC(C)Oc1ccc(C(=O)N(Cc2ccco2)C2CCS(=O)(=O)C2)cc1 (stereo not shown) | 0.569
75 | N#CC1(c2ccccc2)CCc2[nH]c3ccccc3c2C1 (stereo not shown) | 5.04

Row | Structure (SMILES) | % Inhibition @ 10 uM [%]
76 | CC1=Nc2nnnn2C(c2ccc(C)cc2)/C1=C(\O)OC1CCCCC1 (stereo not shown) | 3.61
77 | CNS(=O)(=O)c1cnccc1N1CCN(c2cccc(C)c2)CC1 | -1.59
78 | COc1ccc(-c2cnc(OC(C)(C)C)nc2OC(C)(C)C)cc1 | -0.185
79 | COc1cccc(C/N=C/C2=C(O)c3sccc3N(Cc3cccc(F)c3)S2(=O)=O)c1 | 2.27
80 | Cc1ccc(S(=O)(=O)N2CCN(Cc3ccccc3)CC2)cc1C | 1.4
81 | Cc1cn(CC(=O)O)c(=O)c2ccccc12 | 0.635
82 | CC(C)(C)c1ccc(C(=O)n2nc(-c3ccco3)nc2NCc2cccs2)cc1 | -5.08
83 | COc1cccc(C(=O)N2CCC3(CC2)N=C(c2ccc(C)cc2)C(=O)N3)c1 | 5.27
84 | CC1CCN(c2ncnc3c2nnn3Cc2ccccc2)CC1 | -5.72
85 | COc1ccc2c(c1OC)C(=O)N(c1nc[nH]n1)C2 | -3.77
86 | CS(=O)(=O)N(Cc1ccccc1)c1ccc(C(=O)Nc2ccccc2Br)cc1 | -5.67
87 | Cc1nc2sccn2c(=O)c1S(=O)(=O)N1CCN(c2ccccn2)CC1 | -0.0709
88 | COc1cccc(-c2cc(C(F)(F)F)n3ncc(-c4ccccc4)c3n2)c1 | -5.1
89 | CCOc1ccc(CC(=O)Nc2sc3c(c2C(N)=O)CCCC3)cc1OCC | -13.5
90 | CC1Cc2nc(SCC(=O)NCc3ccc(F)cc3)n(CCc3ccccc3)c(=O)c2S1 (stereo not shown) | 3.67
91 | COC(=O)/C(C#N)=C/c1c[nH]c2ccccc12 | -1.99
92 | O=C(CCC1CCCC1)Nc1ccncc1 | -2.05
93 | COc1ccccc1-c1noc(CSc2nc3ccccc3[nH]2)n1 | -4.78
94 | CC1(C)CC(OC(=O)c2ccco2)CC(C)(C)N1OC(=O)c1ccc(-n2cnnn2)cc1 | -4.91
95 | Cc1cc(C)c(C(=O)/C=C/c2ccccc2F)c(O)n1 | 1.48
96 | CCOC(=O)c1ccc(-c2ccc(-c3c(C#N)c(N)n4c(nc5ccccc54)c3C#N)o2)cc1 | -4.24
97 | O=c1c2ccccc2nc(CSc2ncnc3[nH]cnc23)n1-c1cccc(C(F)(F)F)c1 | 1.62
98 | COC(=O)c1oc2ccccc2c1N | -8.96
99 | C#CCN(C(=O)c1cnoc1C)c1ccc(Cl)cc1 | -9.33
100 | CCOC(=O)c1c(C)[nH]c(C)c1S(=O)(=O)N1CCC(C(=O)N2CCN(C)CC2)CC1 | -0.188
